# Source: the supplement of paper PMC8728848
# The other results are listed elsewhere or left out.
# B1: Gal 7 (Canis lupus) (protein)
# chain: MAGSSNVPHKTSLPEGIRVGTVMRIRGVVPNKAGRFYVNLLCGEAPGSEAALHFNPRLDESTVVFNTLEQGAWGREERGTGIPFQRGQPFDVLLIATDEGFKAVVGDSEYHHFRYRIPPARVRLLEVGGDLQLESVSVF
# Legend:
# Experiment in all cases: glycan array binding signal (z-score within array); higher = stronger binding
# Details in all cases: glycan notation: IUPAC condensed, linker removed
# [1] = target: Fuc(a1-2)Gal(b1-4)[Fuc(a1-3)]GlcNAc(b1-2)[Fuc(a1-2)Gal(b1-4)[Fuc(a1-3)]GlcNAc(b1-4)]Man(a1-3)[Fuc(a1-2)Gal(b1-4)[Fuc(a1-3)]GlcNAc(b1-2)Man(a1-6)]Man(b1-4)GlcNAc(b1-4)GlcNAc
# In short: (§1)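 The binding signal is a Z-score computed within each array and averaged over linkers. Arrays of the same protein sequence at different concentrations or buffers were also averaged together. Data originate from 3228 arrays in the Consortium for Functional Glycomics database, kept only where the protein sequence was available.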
# [2] = target: Fuc(a1-2)Gal(b1-4)[Fuc(a1-3)]GlcNAc(b1-3)Gal(b1-4)[Fuc(a1-3)]GlcNAc
# In short: as §1
# [3] = target: Fuc(a1-2)Gal(b1-4)[Fuc(a1-3)]GlcNAc(b1-3)Gal(b1-4)[Fuc(a1-3)]GlcNAc(b1-3)Gal(b1-4)[Fuc(a1-3)]GlcNAc
# In short: as §1
# [4] = target: Fuc(a1-2)Gal(b1-4)[Fuc(a1-3)]GlcNAc(b1-3)GalNAc
# In short: as §1
# Fuc(a1-2)Gal6S(b1-4)Glc = target: Fuc(a1-2)Gal6S(b1-4)Glc
# In short: as §1
# [5] = target: Fuc(a1-2)Gal6S(b1-4)Glc6S
# In short: as §1
# [6] = target: Fuc(a1-2)Gal6S(b1-4)GlcNAc
# In short: as §1
# Fuc(a1-2)[Gal(a1-3)]Gal = target: Fuc(a1-2)[Gal(a1-3)]Gal
# In short: as §1
# [7] = target: Fuc(a1-2)[Gal(a1-3)]Gal(b1-3)GlcNAc
# In short: as §1
# [8] = target: Fuc(a1-2)[Gal(a1-3)]Gal(b1-3)GlcNAc(b1-2)Man(a1-3)[Fuc(a1-2)[Gal(a1-3)]Gal(b1-3)GlcNAc(b1-2)Man(a1-6)]Man(b1-4)GlcNAc(b1-4)GlcNAc
# In short: as §1
# [9] = target: Fuc(a1-2)[Gal(a1-3)]Gal(b1-3)GlcNAc(b1-3)GalNAc
# In short: as §1
# [10] = target: Fuc(a1-2)[Gal(a1-3)]Gal(b1-4)Glc
# In short: as §1
# [11] = target: Fuc(a1-2)[Gal(a1-3)]Gal(b1-4)GlcNAc
# In short: as §1
# [12] = target: Fuc(a1-2)[Gal(a1-3)]Gal(b1-4)GlcNAc(b1-2)Man(a1-3)[Fuc(a1-2)[Gal(a1-3)]Gal(b1-4)GlcNAc(b1-2)Man(a1-6)]Man(b1-4)GlcNAc(b1-4)GlcNAc
# In short: as §1
# [13] = target: Fuc(a1-2)[Gal(a1-3)]Gal(b1-4)GlcNAc(b1-2)Man(a1-3)[Fuc(a1-2)[Gal(a1-3)]Gal(b1-4)GlcNAc(b1-2)Man(a1-6)]Man(b1-4)GlcNAc(b1-4)[Fuc(a1-6)]GlcNAc
# In short: as §1
# [14] = target: Fuc(a1-2)[Gal(a1-3)]Gal(b1-4)GlcNAc(b1-3)GalNAc
# In short: as §1
# [15] = target: Fuc(a1-2)[Gal(a1-3)]Gal(b1-4)[Fuc(a1-3)]Glc
# In short: as §1
# [16] = target: Fuc(a1-2)[Gal(a1-3)]Gal(b1-4)[Fuc(a1-3)]GlcNAc
# In short: as §1
# [17] = target: Fuc(a1-2)[Gal(a1-3)]Gal(b1-4)[Fuc(a1-3)]GlcNAc(b1-3)GalNAc
# In short: as §1
# [18] = target: Fuc(a1-2)[Gal(a1-4)]Gal(b1-4)GlcNAc
# In short: as §1
# [19] = target: Fuc(a1-2)[GalNAc(a1-3)]Gal
# In short: as §1
# [20] = target: Fuc(a1-2)[GalNAc(a1-3)]Gal(b1-3)GalNAc(a1-3)[Fuc(a1-2)]Gal(b1-4)GlcNAc
# In short: as §1
# [21] = target: Fuc(a1-2)[GalNAc(a1-3)]Gal(b1-3)GlcNAc
# In short: as §1
# [22] = target: Fuc(a1-2)[GalNAc(a1-3)]Gal(b1-3)GlcNAc(b1-2)Man(a1-3)[Fuc(a1-2)[GalNAc(a1-3)]Gal(b1-3)GlcNAc(b1-2)Man(a1-6)]Man(b1-4)GlcNAc(b1-4)GlcNAc
# In short: as §1
# [23] = target: Fuc(a1-2)[GalNAc(a1-3)]Gal(b1-3)GlcNAc(b1-3)GalNAc
# In short: as §1
# [24] = target: Fuc(a1-2)[GalNAc(a1-3)]Gal(b1-4)Glc
# In short: as §1
# [25] = target: Fuc(a1-2)[GalNAc(a1-3)]Gal(b1-4)GlcNAc
# In short: as §1
# [26] = target: Fuc(a1-2)[GalNAc(a1-3)]Gal(b1-4)GlcNAc(b1-2)Man(a1-3)[Fuc(a1-2)[GalNAc(a1-3)]Gal(b1-4)GlcNAc(b1-2)Man(a1-6)]Man(b1-4)GlcNAc(b1-4)GlcNAc
# In short: as §1
# [27] = target: Fuc(a1-2)[GalNAc(a1-3)]Gal(b1-4)GlcNAc(b1-3)Gal(b1-4)GlcNAc
# In short: as §1
# [28] = target: Fuc(a1-2)[GalNAc(a1-3)]Gal(b1-4)GlcNAc(b1-3)Gal(b1-4)GlcNAc(b1-3)Gal(b1-4)GlcNAc
# In short: as §1
binder,measurement,setting,value
B1,glycan array binding signal (z-score),[1],-0.168
same,glycan array binding signal (z-score),[2],-0.188
same,glycan array binding signal (z-score),[3],5.78
same,glycan array binding signal (z-score),[4],-0.159
same,glycan array binding signal (z-score),Fuc(a1-2)Gal6S(b1-4)Glc,-0.2
same,glycan array binding signal (z-score),[5],-0.192
same,glycan array binding signal (z-score),[6],-0.199
same,glycan array binding signal (z-score),Fuc(a1-2)[Gal(a1-3)]Gal,-0.214
same,glycan array binding signal (z-score),[7],0.004
same,glycan array binding signal (z-score),[8],0.444
same,glycan array binding signal (z-score),[9],-0.174
same,glycan array binding signal (z-score),[10],-0.139
same,glycan array binding signal (z-score),[11],-0.055
same,glycan array binding signal (z-score),[12],1.26
same,glycan array binding signal (z-score),[13],1.25
same,glycan array binding signal (z-score),[14],-0.183
same,glycan array binding signal (z-score),[15],-0.171
same,glycan array binding signal (z-score),[16],-0.203
same,glycan array binding signal (z-score),[17],-0.16
same,glycan array binding signal (z-score),[18],-0.216
same,glycan array binding signal (z-score),[19],-0.216
same,glycan array binding signal (z-score),[20],-0.149
same,glycan array binding signal (z-score),[21],0.526
same,glycan array binding signal (z-score),[22],0.631
same,glycan array binding signal (z-score),[23],-0.18
same,glycan array binding signal (z-score),[24],-0.099
same,glycan array binding signal (z-score),[25],0.378
same,glycan array binding signal (z-score),[26],2.5
same,glycan array binding signal (z-score),[27],3.55
same,glycan array binding signal (z-score),[28],2.59
